Our source for the T/C values is PubChem BioAssay AID256 (DTP/NCI, 2004).

Each structure is given as a SMILES string. Inconclusive results and toxic doses are left out. A number of entries come with more than one value. The list is limited to them. The source may hold further records. Values that stand side by side do not match, cause unknown; some may be repeats, others may stem from another dose, organism or construct than stated.

The subject of this experiment is CD2F1 mice, L1210 leukemia ip, survival T/C. The experiment in a line: NCI In Vivo Anticancer Drug Screen. Data for tumor model L1210 Leukemia (intraperitoneal) in CD2F1 (CDF1) mice. The settings on record: higher = longer survival. As to the method:
The antitumor activity of compounds was measured in mice bearing transplantable tumors. Survival or tumor size were measured and the results are expressed as the measurement made in the treated group (T) divided by the measurement made in the vehicle treated control group (C). The tumor model used in this assay is L1210 Leukemia (intraperitoneal) in CD2F1 (CDF1) mice

As for `CC(C)NC(=O)c1ccc(N=NN(C)C)cc1`, the T/C (endpoint: mean survival time, dose: 50.0 mg/kg/injection, schedule: Q01DX009 (ip), vehicle: other) is on record as 120 % of control, 121 % of control, 154 % of control.

Regarding `O=C1NC(=O)C2C3C=CC(C12)C1C2C(=O)NC(=O)C2C31` (stereo not given), the T/C was 119 % of control and 164 % of control (endpoint: median survival time, dose: 50.0 mg/kg/injection, schedule: Q01DX005 (ip), vehicle: other); 112 % of control and 170 % of control (endpoint: median survival time, dose: 100.0 mg/kg/injection, schedule: Q01DX005 (ip), vehicle: other).

For the compound `CC1(C)N=C(N)N=C(N)N1c1ccc(CCCCc2ccc(S(=O)(=O)F)cc2Cl)c(Cl)c1`, the T/C (endpoint: mean survival time, dose: 75.0 mg/kg/injection, schedule: Q01DX009 (ip), vehicle: saline with Tween-80) was 105 % of control and 156 % of control.

In the case of `Nc1ccn([C@@H]2C=C(CO)[C@@H](O)[C@H]2O)c(=O)n1`, the T/C (endpoint: median survival time, dose: 3.37 mg/kg/injection, schedule: Q01DX009 (oral), vehicle: saline) is 105 % of control and 150 % of control.
